# In the supplement of paper PMC11880418:
# Counter-ions that a name gives are not always drawn. The list shows a part of the results. The data scatter; read single values as rough.
# Legend:
# Assay in all cases: ALDHbr (CSC) cell proportion score relative to DMSO vehicle (ratio to DMSO); breast (SUM159) / gastric (MKN45) / pancreatic (PANC1) / colon cancer lines; ALDHbr cells have high ALDH activity and are rich in cancer stem cells (CSC); higher = more CSC (ALDHbr) cells remaining
# Conditions in all cases: 10 µM; 72 h
# MKN45 = system: MKN45
# PANC1 = system: PANC1
# SUM159 = system: SUM159
# T84 = system: T84
# 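Further: High-content imaging of ALDEFLUOR-stained cells with Hoechst-labelled nuclei in 384-well plates, triplicate wells, scored as Z-score against 0.1% DMSO vehicle, negative meaning fewer ALDHbr cells.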
Compound,ALDHbr (MKN45),ALDHbr (PANC1),ALDHbr (SUM159),ALDHbr (T84)
Clc1cc(Cl)c(OCC#CI)cc1Cl [Haloprogin],0.26,0.782,0.66,0.777
CC1=C(/C=C/C(C)=C/C=C/C(C)=C\C(=O)O)C(C)(C)CCC1 [Isotretinoin],0.925,1.78,0.0517,0.729
C[C@@H]1C[C@H]2[C@@H]3CCC4=CC(=O)C=C[C@]4(C)[C@@]3(Cl)[C@@H](O)C[C@]2(C)[C@@]1(OC(=O)c1ccco1)C(=O)CCl [Mometasone furoate],0.816,0.601,1.48,0.586
CN1CCC(=C2c3ccccc3CCc3sccc32)CC1 [Pizotifen malate],1.42,1.08,0.619,0.83
Cc1cc(C(C)(C)C)cc(C)c1CC1=NCCN1 [Xylometazoline hydrochloride],1.01,0.882,0.87,1.02
CC1=Nc2ccc(Cl)cc2S(=O)(=O)N1 [Diazoxide],0.919,0.705,0.982,1.04
CCCCCN(CCCCC)C(=O)C(CCC(=O)O)NC(=O)c1ccc(Cl)c(Cl)c1 (centres undefined) [Lorglumide sodium salt],0.928,0.913,1.12,1.02
Nc1nc(F)nc2c1ncn2[C@@H]1O[C@H](CO)[C@@H](O)[C@@H]1O [Fludarabine],0.65,0.0267,0.09,0.948
O=c1[nH]cnc2c1ncn2[C@H]1CC[C@@H](CO)O1 [Didanosine],0.987,0.976,1.12,1.1
CCC1(c2ccccc2)NC(=O)N(C)C1=O (centres undefined) [Mephenytoin],1.09,0.923,0.86,0.914
CCCN[C@H]1CCc2nc(N)sc2C1 [Pramipexole dihydrochloride],1.16,0.929,1.29,0.861
CO/N=C1\CN(c2nc3c(cc2F)c(=O)c(C(=O)O)cn3C2CC2)CC1CN (centres undefined) [Gemifloxacin mesylate],0.866,0.748,1.17,0.948
CCOC(=O)c1ccc(N)cc1 [Benzocaine],1.24,1.14,1.04,0.952
COc1ccccc1N1CCN(CCCNc2cc(=O)n(C)c(=O)n2C)CC1 [Urapidil hydrochloride],1.08,0.84,1.6,1.1
CC(Cc1cccc(C(F)(F)F)c1)NCCOC(=O)c1ccccc1 (centres undefined) [Benfluorex],1.06,0.892,1.49,1.17
O=C1CN(/N=C/c2ccc(-c3ccc([N+](=O)[O-])cc3)o2)C(=O)N1 [Dantrolene sodium salt],0.783,0.743,0.935,0.824
O=C1C(CC[S+]([O-])c2ccccc2)C(=O)N(c2ccccc2)N1c1ccccc1 (centres undefined) [Sulfinpyrazone],0.964,0.947,1.12,1.1
CN[C@@H]1[C@@H](O[C@H]2O[C@H](CO)[C@@H](N)[C@H](O)[C@H]2O)OC2C[C@@H](N)[C@@H](O[C@H]3[C@H](O)[C@@H](O)[C@H](N)C[C@@H]3N)OC2[C@@H]1O (some centres undefined) [Apramycin],0.89,0.972,0.912,0.99
Nc1ccc(S(=O)(=O)Nc2ccnn2-c2ccccc2)cc1 [Sulfaphenazole],0.889,0.645,1.02,0.914

Compound,ALDHbr (MKN45),ALDHbr (PANC1),ALDHbr (SUM159),ALDHbr (T84)
Cc1ccc(Cl)c(Nc2ccccc2C(=O)O)c1Cl [Meclofenamic acid sodium salt monohydrate],1.06,0.947,0.996,1.19
CC(=O)[C@@]1(O)CC[C@H]2[C@@H]3C[C@H](C)C4=CC(=O)C=C[C@]4(C)[C@@]3(F)[C@@H](O)C[C@@]21C [Fluorometholone],0.836,0.558,1.14,0.852
O=C(NCCO[N+](=O)[O-])c1cccnc1 [Nicorandil],0.835,0.82,0.722,0.729
NNCCc1ccccc1 [Phenelzine sulfate],1.94,1.1,0.993,1.08
CCCCNc1ccc(C(=O)OCCN(C)C)cc1,1.03,1.11,1.04,0.876
CC(=O)O[C@H]1C[C@@H]2CC[C@@H]3[C@H](CC[C@@]4(C)[C@H]3C[C@H]([N+]3(C)CCCCC3)[C@@H]4OC(C)=O)[C@@]2(C)C[C@@H]1N1CCCCC1 [Vecuronium bromide],1.15,0.931,0.876,0.924
CC(=O)CC(c1ccc([N+](=O)[O-])cc1)c1c(O)c2ccccc2oc1=O (centres undefined) [Acenocoumarol],0.962,0.9,1.1,0.902
COc1ccc2[nH]c([S+]([O-])Cc3ncc(C)c(OC)c3C)nc2n1 (centres undefined) [Tenatoprazole],1.5,0.755,1.1,0.85
Cc1ccc(-c2cc(C(F)(F)F)nn2-c2ccc(S(N)(=O)=O)cc2)cc1 [Celecoxib],0.454,0.367,0.899,0.78
CN(C)CCCOc1nn(Cc2ccccc2)c2ccccc12 [Benzydamine hydrochloride],0.709,0.84,0.852,0.983
CCN(Cc1ccncc1)C(=O)C(CO)c1ccccc1 (centres undefined) [Tropicamide],0.98,0.972,1.04,1.07
Cc1c(OCC(F)(F)F)ccnc1C[S+]([O-])c1nc2ccccc2[nH]1 (centres undefined) [Lansoprazole],1.21,0.829,1.68,0.764
CCCC(CCC)C(=O)O [Valproic acid],1.17,1,0.949,0.879
CC(=C(CCO)SSCC1CCCO1)N(C=O)Cc1cnc(C)nc1N (stereo in doubt) [Fursultiamine Hydrochloride],0.822,0.948,0.881,0.766
CC(=O)NS(=O)(=O)c1ccc(N)cc1 [Sulfacetamide sodic hydrate],1.08,0.878,1.01,0.935
CCN(CC)CCOC(=O)c1ccc(N)cc1 [Procaine hydrochloride],0.991,0.791,1.02,0.822
CCCCCCCCNC(C)C(O)c1ccc(SC(C)C)cc1 (centres undefined) [Suloctidil],1.01,1.34,0.678,0.186
CNC(C)CCC=C(C)C (centres undefined) [Isometheptene mucate],1.05,0.993,0.886,0.829
CCCCC(=O)N(Cc1ccc(-c2ccccc2-c2nnn[nH]2)cc1)[C@H](C(=O)O)C(C)C [Valsartan],1.36,0.948,1.09,1.05

Compound,ALDHbr (MKN45),ALDHbr (PANC1),ALDHbr (SUM159),ALDHbr (T84)
Cc1nnc(SCC2=C(C(=O)O)N3C(=O)[C@@H](NC(=O)Cn4cnnn4)[C@H]3SC2)s1 [Cefazolin sodium salt],0.987,0.988,0.84,1.08
C[C@H](N[C@@H](CCc1ccccc1)C(=O)O)C(=O)N1CCC[C@H]1C(=O)O [Enalaprilat dihydrate],0.973,1.03,0.85,0.971
Cc1ncc(C[n+]2csc(CCO)c2C)c(N)n1 [Thiamine hydrochloride],1.02,1.03,1.01,0.942
O=C(Cn1ccnc1[N+](=O)[O-])NCCO [Etanidazole],0.892,0.949,0.953,1.03
CCSc1ccc2c(c1)N(CCCN1CCN(C)CC1)c1ccccc1S2 [Thiethylperazine dimalate],0.652,0.822,0.286,0.153
COc1ccc2c3c1O[C@H]1C[C@@H](O)C=C[C@@]31CCN(C)C2 [Galanthamine hydrobromide],1.02,0.889,1.09,0.862
Cc1onc(-c2ccccc2)c1C(=O)N[C@@H]1C(=O)N2[C@@H]1SC(C)(C)[C@@H]2C(=O)O [Oxacillin sodium],1.02,0.796,1.2,1.02
COc1ccc2cc(CCC(C)=O)ccc2c1 [Nabumetone],0.984,0.89,1.1,0.92
COc1cc(C(=O)NS(=O)(=O)c2ccccc2C)ccc1Cc1cn(C)c2ccc(NC(=O)OC3CCCC3)cc12 [Zafirlukast],1.17,0.991,0.804,0.933
CC[C@H]1OC(=O)[C@H](C)[C@@H](O[C@H]2C[C@@](C)(OC)[C@@H](O)[C@H](C)O2)[C@H](C)[C@@H](O[C@@H]2O[C@H](C)C[C@H](N(C)C)[C@H]2O)[C@](C)(O)C[C@@H](C)CN(C)[C@H](C)[C@@H](O)[C@]1(C)O [Azithromycin],0.96,0.635,1.04,1.08
CC[C@H]1OC(=O)C[C@@H](O)[C@H](C)[C@@H](O[C@@H]2O[C@H](C)[C@@H](O[C@H]3C[C@@](C)(O)[C@@H](O)[C@H](C)O3)[C@H](N(C)C)[C@H]2O)[C@@H](CC=O)C[C@@H](C)C(=O)/C=C/C(C)=C/[C@@H]1CO[C@@H]1O[C@H](C)[C@@H](O)[C@@H](OC)[C@H]1OC [Tylosin],1.13,0.307,1.05,0.919
CCC1(c2ccccc2)C(=O)NCNC1=O [Primidone],0.885,0.874,1.1,1.09
Clc1ccc(COC(Cn2ccnc2)c2ccc(Cl)cc2Cl)c(Cl)c1 (centres undefined) [Miconazole],1.04,1.21,1.12,0.996
O=C1Nc2ccc(Cl)cc2[C@@](C#CC2CC2)(C(F)(F)F)O1 [Efavirenz],0.816,0.924,0.819,1.01
CN(C)C(=N)NC(=N)N [Metformin hydrochloride],1.01,0.833,0.932,0.889
CN(C)CCOC1=Cc2ccccc2Sc2ccc(Cl)cc21 [Zotepine],0.866,0.969,0.549,0.638
CCN1CC(CCN2CCOCC2)C(c2ccccc2)(c2ccccc2)C1=O (centres undefined) [Doxapram hydrochloride],0.993,0.925,0.785,0.901
Clc1ccc(COC(Cn2ccnc2)c2ccc(Cl)cc2Cl)cc1 (centres undefined) [Econazole nitrate],1.04,0.995,0.968,0.894
